The record followed here is PubChem BioAssay (NCI).

Several values for one entry are separate records, joined by “and”; a condition that tells them apart may be missing. Equal entries are not always repeated.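 Five compound concentrations were applied to cells in 96-well plates for 48 hours; endpoints were derived by simple linear interpolation of the resulting dose-response curve. GI50 is the concentration that inhibits growth by half. At the TGI there is no net growth.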 Square brackets hold non-standard residues; d marks the D form. Peptide text beside a SMILES is read from it. * marks the point of attachment. ξ: configuration not given here. dIva = CC[C@@](C)(N)C(=O)O; Aib = CC(C)(N)C(=O)O; ξP = O=C(O)C1CCCN1; βAla = NCCC(=O)O; X5 = OCN*

This test relates to NCI-H322M lung. As to the kind of experiment: inhibition of tumour cell growth, NCI panel, 48 h.
Consider `Cc1ccc(NCc2nnc3c(-c4ccccc4)nc4ccccc4n23)cc1`, for which the TGI stood at 84.8 µM.
The same measure, in the same setting: the same measure for `COc1cccc(-c2cc(=O)c3cc(N4CCCC4)ccc3[nH]2)c1`: > 10 µM.
As to `CCCNC(=O)c1cc(NC(=O)c2cc(NC(=O)CCS(=O)(=O)OC)cn2C)cn1C`, the TGI is 69.2 µM.
On the same count and under the same terms, the same measure for `O=c1ccc2nc3ccc(O)cc3oc-2c1`: > 77.5 µM; for `O=C(O)CCCN=C(C(=NCCCC(=O)O)c1ccccc1)c1ccccc1`: > 100 µM; for `Cc1ccc(C(=O)C(C)N)cc1C` (stereo not drawn): > 100 µM.
With `COc1ccc(/C=C/C(=O)/C=C(/C=C/c2ccc(OC)c(OC)c2OC)OB(F)F)c(OC)c1OC`, the GI50 was 6.82 µM and the TGI was > 100 µM.
For the compound `N=c1oc2ccc(Cl)cc2cc1C(=O)NC1CCCCC1`, the TGI was > 100 µM.
Same read-out and setting: the same measure for `C/C=C1/C(=O)O[C@]23C=C[C@@H]4C(C(=O)OC)=CO[C@H](O[C@@H]12)[C@@H]43`: 8.42 µM.
As for `O=c1cc(-c2cccc(Br)c2)[nH]c2cc3c(cc12)OCO3`, the TGI worked out at 43.6 µM.
Turning to `CC[C@@](C)(NC(=O)[C@H](C)NC(=O)CCNC(=O)C(C)(C)NC(=O)[C@H](C)NC(=O)[C@@H]1CCCN1C(=O)[C@@](C)(CC)NC(=O)[C@H](Cc1ccccc1)NC(=O)C1CCCN1C(=O)C(C)(C)NC(=O)C1CCCN1C(=O)C(C)(C)NC(C)=O)C(=O)NCCC(=O)N[C@@H](CC(C)C)C(=O)NC(C)(C)C(=O)NCCC(=O)N[C@@H](CC(C)C)C(=O)NC(C)(C)C(=O)NC(C)(C)C(=O)N[C@@H](CC(C)C)C(=O)NCCC(=O)NCO` (stereo partly drawn) (Ac-[Aib][ξP][Aib][ξP]F[dIva]PA[Aib][βAla]A[dIva][βAla]L[Aib][βAla]L[Aib][Aib]L[βAla]-X5), the GI50 is 0.262 µM and the TGI worked out at 0.512 µM.
As for `COc1ccc(S(=O)(=O)N/N=C/CN2C(=O)c3ccccc3C2=O)cc1`, the TGI is > 100 µM.
The same measure, in the same setting: the same measure for `Cc1ccc2c(c1)C/C(=C\c1ccccc1C(=O)O)C2=O`: > 100 µM; for `CN1C(=O)C(O)C[C@@H]1c1ccc(F)cc1` (stereo partly drawn): > 100 µM.
In the case of `OCC(O)C(OC1OC(CO)C(O)C(O)C1O)c1nn(-c2ccc(Cl)cc2)c2nc3cc(Cl)ccc3nc12` (stereo not drawn), the TGI was > 100 µM.
With `COC(=O)C(Cc1ccccc1)N=Cc1c(O)c(O)c(C(C)C)c2cc(C)c(-c3c(C)cc4c(C(C)C)c(O)c(O)c(C=NC(Cc5ccccc5)C(=O)OC)c4c3O)c(O)c12` (stereo not drawn), the TGI amounted to 75.6 µM.
Turning to `COc1ccc2c(c1)C(=O)c1c-2n(CCCNCCO)c(=O)c2cc([N+](=O)[O-])ccc12`, the GI50 was 0.021 µM and the TGI is 1.7 µM.
As to `Nc1nc2c(ncn2CC(CO)CC(c2ccccc2)P(=O)(O)O)c(=O)[nH]1` (stereo not drawn), the TGI is > 100 µM.
Still for that read-out and setting: then `CC1CC(c2ccc([N+](=O)[O-])cc2)=Nc2ccccc2S1=O` (stereo not drawn), with > 100 µM.
With `N#CCCN(CCC#N)c1ccc(/C=C2\N=C(c3ccccc3)N(c3ccccc3)C2=O)cc1`, the TGI is > 100 µM.
Still for that read-out and setting: then `CCCNC(=O)Nc1ccc2c(c1)Cc1cc(N(CCCl)CCCl)ccc1-2`, with > 100 µM; and `CC1CC/C(=C\c2ccc(F)cc2)C2=C1C(c1ccc(F)cc1)n1c(s/c(=C\c3ccc(Cl)cc3)c1=O)=N2` (stereo not drawn), with > 100 µM; and `N#CCCn1c(CCC(=O)Nc2ccc(Cl)cc2Cl)n[nH]c1=S`, with > 100 µM.
In the case of `NS(=O)(=O)c1ccc(N=Nc2c(=O)[nH]c3ccc4[nH]cccc4c23)cc1`, the GI50 was 0.817 µM and the TGI is > 25 µM.
For `CC(=O)N1CCN(C=S)CC1`, the TGI is > 100 µM.
For `Cc1ccc(S(=O)(=O)NC(=O)NCC(=O)O)cc1`, the TGI is > 100 µM.
On the same count and under the same terms, the same measure for `O=c1c2cc([N+](=O)[O-])cnc2sn1-c1ccc(Br)cc1`: > 100 µM.
Regarding `COc1cc2c(cc1O)N=C[C@@H]1CCC(O)N1C2=O` (mixture of isomers), the TGI amounted to 28.4 µM.
Turning to `C1COCCOP2(N3CC3)=NP(N3CC3)(=NP(N3CC3)(N3CC3)=N2)OCCOCCO1` (stereo not drawn), the TGI was > 100 µM.
Take `CC(=O)Nc1ccc2c3c(cc(O)c2c1)N(C(=O)CCCCCC(=O)Nc1ccc2c4c(cc(O)c2c1)N(C(=O)OC(C)(C)C)CC4CCl)CC3CCl` (stereo not drawn): the TGI was 62.9 µM.
The same measure, in the same setting: the same measure for `CCN(CC)c1ccc2cc(-c3csc(-c4ccc(N(C)C)cc4)n3)c(=O)oc2c1`: > 100 µM.
On to `COc1cc(C2S/C(=C/c3ccccc3)C(=O)N2c2ccccn2)cc(OC)c1OC` (stereo not drawn), for which the TGI is > 100 µM.
The same measure, in the same setting: the same measure for `N#CC1([N+](=O)[O-])C=C1c1ccccc1` (stereo not drawn): > 100 µM; for `C#CC1(O)CC(c2ccccc2)N(C)C(c2ccccc2)C1` (stereo not drawn): > 100 µM.
As to `CC(=O)Nc1nc(C)c(-c2cc3c(c(S(C)(=O)=O)c2)C(=O)N([C@@H](C)C2CC2)C3)s1`, the GI50 is 29.4 µM and the TGI was > 100 µM.
The like results for `CCC(=O)OCN1C(=O)C=CC1=O` were, in that order, 37.1 µM and > 100 µM.
Take `CN1CCN(Cc2ccc(NC(=O)c3cncc(C#Cc4ncc5ccccn45)c3)cc2C(F)(F)F)CC1`: the GI50 was 2.41 µM and the TGI is 6.42 µM.
In the case of `COc1ccc(-c2cc3c(N)ncnc3o2)cc1`, the GI50 is > 25 µM and the TGI was > 25 µM.
With `NNC(=O)CSc1nnc(CCCCCCCCc2nnc(SCC(=O)NN)o2)o1`, the TGI is > 100 µM.
Turning to `CN1CCN(Cc2ccc(NC(=O)c3[nH]ncc3Nc3cc(OC4CCCC4)ncn3)cc2)CC1`, the GI50 is 3.64 µM and the TGI turned out to be 15.4 µM.
The like results for `C=C1C(OCCO)OC2O[C@]3(C)CCC4[C@H](C)CCC1C24OO3` (stereo partly drawn) were, in that order, > 100 µM and > 100 µM.
For `CCOC(=O)/C=C1\C[C@H](NC(=O)OCc2ccccc2)C(=O)N1CC(=O)OCC`, the TGI was > 100 µM.
As for `O=C(N/N=C/c1cccc(O)c1)c1ccc(C(F)(F)F)nc1Nc1cccc(C(F)(F)F)c1`, the GI50 is 0.781 µM and the TGI was 5.13 µM.
As to `Cc1c(C=C(C#N)C#N)c(=O)n(C)c(=O)n1C`, the TGI was > 100 µM.
Same read-out and setting: the same measure for `O=C1OC(=O)C2C1C1C(c3ccccc3)=C(c3ccccc3)C2(O)C2C(=O)OC(=O)C12` (stereo not drawn): > 100 µM; for `CCOC(=O)C(C(=O)OCC)C(NC(=O)Nc1cc(C(F)(F)F)ccc1OC)(C(F)(F)F)C(F)(F)F`: 82.7 µM.
On to `NC(C(=O)O)c1ccc(C(=O)O)cc1` (stereo not drawn), for which the TGI was > 100 µM.
As for `C=CC(=O)Nc1cccc(Nc2nc(Nc3ccc(N4CCN(C(C)=O)CC4)cc3OC)ncc2C(F)(F)F)c1`, the GI50 is 1.37 µM and 1.16 µM; the TGI is 5.77 µM and 5.43 µM.
For the compound `CC(C)CC1NC(=O)C(C(C)C)NC(=O)CC(C)COC(=O)C(CC(C)C)N(C)C(=O)C(C(C)C)NC(=O)C(C(C)C)OC1=O` (stereo not drawn), the TGI was > 50 µM.
Still for that read-out and setting: then `COC(=O)c1ccccc1Nc1ccccc1C(=O)OC`, with > 100 µM.
On the same count and under the same terms, then `CC(=O)Nc1ccccc1S(=O)c1ccccc1` (stereo not drawn), with > 100 µM; and `CCCCCCC(=O)CC(=O)C(=O)Nc1ccccc1C`, with > 100 µM.
For the compound `Cn1c(=O)c2[nH]cnc2n(C)c1=O.[CH2-]C(Cc1cccc2cc(C(=O)O)c(=O)oc12)OC.[Hg+2].[OH-]` (stereo not drawn), the GI50 is > 40.9 µM and the TGI was > 55.1 µM.
With `CC(C)=C=CC(C)(C)NS(=O)(=O)NC(C)(C)C=C=C(C)C`, the TGI was > 100 µM.
`CC(=O)Oc1ccc2c3c1[C@@H]1O[C@@H]1c1cccc(c1-3)[C@@H]1O[C@H]21` returned a TGI of 19.8 µM.
On the same count and under the same terms, then `O=C1Cc2c([nH]c3cc(Br)ccc23)-c2ccccc2N1`, with > 100 µM; and `CC1OC(n2cnc3c(N)nc(Cl)nc32)C(C)(O)C1O` (stereo not drawn), with > 25 µM.
For the compound `COc1cc(OC)c2c(c1Cl)O[C@]1(C2=O)C(OCc2ccccc2)=CC(=O)C[C@H]1C`, the GI50 is 7.15 µM and the TGI is > 100 µM.
Turning to `CCOC(=O)C1C(=O)c2cccc(OC)c2C2COC(=O)N12` (stereo not drawn), the TGI is > 100 µM.
Regarding `O=C1CC2OCC=C3CN4CCC56c7ccccc7N1C5C2C3CC46` (stereo not drawn) (tested in a mixture with another compound), the GI50 is > 50 µg/mL and the TGI is > 50 µg/mL.
Take `NCCNc1ncnc2ccc(Cl)cc12`: the TGI was > 100 µM.
Still for that read-out and setting: then `Cc1ccc(NC(=O)CC2C(=O)Nc3ccccc3S2(=O)=O)cc1C` (stereo not drawn), with > 100 µM.
Still for that read-out and setting: the same measure for `Nc1ncnc2c1ncn2C1OC(C(=O)OCCO)C(O)C1O` (stereo not drawn): > 100 µM; for `COc1ccc2c(c1)O/C(=C\c1ccc([N+](=O)[O-])s1)C2=O`: > 100 µM.
Same read-out and setting: then `CCCCCCCCC(=O)NCCN(CCN)C(=O)CCCCCCCC`, with 34.2 µM.
With `COc1ccc(-c2c(C#N)cnc(N)c2-c2nc3cc(C)c(C)cc3[nH]2)cc1`, the GI50 was 15.5 µM and the TGI is > 100 µM.
`CC(C)[Si](OC1=CCC[C@H]2NC(=O)[C@@H](Cc3ccc([N+](=O)[O-])cc3)[C@@]12C)(C(C)C)C(C)C` yielded a TGI of 27.9 µM.
Regarding `O=C(CN1CCN(c2ccccn2)CC1)Nc1ccc(Cl)cc1C(=O)c1ccccc1Cl`, the GI50 is > 100 µM and the TGI is > 100 µM.
Take `Nc1ccc2c(c1)S(=O)(=O)c1cc(N)ccc1-2`: the TGI was > 100 µM.
As for `CNCC1CCn2c(c(C3=C(c4cn(C)c5ccccc45)C(=O)NC3=O)c3ccccc32)C1` (stereo not drawn), the GI50 is 4.14 µM and the TGI amounted to 12.1 µM.
The like results for `COc1ccc(OC)c(/C=C/C(=O)c2ccc3cc(OC)ccc3c2)c1` were, in that order, 9.44 µM and 25.1 µM.
Turning to `CC1CC2(C)CC(=O)C1C1C(=O)N(CCN3CCOCC3)C(=O)C12` (stereo not drawn), the GI50 was > 100 µM and the TGI is > 100 µM.
On to `Nc1nc(Cl)c2ncn(Cc3ccc(-c4ccc(CCl)cc4)cc3)c2n1`, for which the GI50 was 14.7 µM and the TGI is 38.4 µM.
The compound `CC(=O)OC[C@]12CCC3[C@@]4(C)CCCC(C)(C)C4CC[C@@]3(C)C1CC(C1=CC(=O)OC1O)O2` (stereo partly drawn) showed a TGI of 4.9 µM.
In the case of `CSc1nc(Cl)c2c(n1)Sc1nc3ccccc3n1N=C2`, the TGI is > 100 µM.
Regarding `COc1ccc2oc3c(ccc[n+]3C)c(=O)c2c1`, the TGI was > 100 µM.
The same measure, in the same setting: then `O=c1[nH]c(Br)nc2c(N3CCCCC3)c[nH]c12`, with > 100 µM; and `Cc1ccc(SSCCCCS(=O)O)cc1`, with > 100 µM.
On to `O=C1/C(=C/c2cccc(F)c2)CN(C(=O)C(Cl)Cl)C/C1=C\c1cccc(F)c1`, for which the GI50 is 0.525 µM and the TGI is 1.62 µM.
On the same counts, the results for `C[C@H](c1ccc(Cl)cc1[N+](=O)[O-])N1C(=O)c2cc(I)ccc2NC(=O)[C@H]1c1ccc(Cl)cc1` are 9.22 µM and > 100 µM.
